The labels stand for the following.
T1: PIA1 (clade F PP2C protein phosphatase), BD-PIA1 two-hybrid fusion (Arabidopsis thaliana) (UniProt Q9SIU8)
T1 sequence: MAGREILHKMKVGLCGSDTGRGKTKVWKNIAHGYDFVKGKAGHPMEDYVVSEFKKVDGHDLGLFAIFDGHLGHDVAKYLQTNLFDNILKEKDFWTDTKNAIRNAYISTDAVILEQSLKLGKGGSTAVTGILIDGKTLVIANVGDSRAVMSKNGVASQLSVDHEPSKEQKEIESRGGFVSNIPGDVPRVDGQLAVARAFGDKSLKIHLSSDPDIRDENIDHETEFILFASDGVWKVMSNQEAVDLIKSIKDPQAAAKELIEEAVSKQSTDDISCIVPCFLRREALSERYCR

By UniProt entry, the sequences of proteins in these tests, tags left out.
UniProt O49686: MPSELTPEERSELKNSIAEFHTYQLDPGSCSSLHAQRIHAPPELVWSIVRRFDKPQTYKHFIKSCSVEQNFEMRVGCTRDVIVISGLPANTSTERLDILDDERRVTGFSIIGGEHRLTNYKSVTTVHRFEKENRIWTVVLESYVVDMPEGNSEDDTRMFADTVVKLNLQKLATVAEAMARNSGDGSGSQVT
UniProt Q8VZS8: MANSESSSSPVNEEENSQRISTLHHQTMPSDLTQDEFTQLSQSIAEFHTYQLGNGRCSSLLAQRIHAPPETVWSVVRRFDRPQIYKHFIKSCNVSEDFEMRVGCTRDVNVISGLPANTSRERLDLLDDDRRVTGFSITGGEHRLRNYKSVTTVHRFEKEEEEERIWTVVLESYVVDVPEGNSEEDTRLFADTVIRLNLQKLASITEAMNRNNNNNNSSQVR

B1: SnRK2.5, two-hybrid fusion (enzyme, UniProt Q9FFP9 1-360)
chain: MDKYEVVKDLGAGNFGVARLLRHKETKELVAMKYIERGRKIDENVAREIINHRSLRHPNIIRFKEVILTPTHLAIVMEYASGGELFERICNAGRFSEAEARYFFQQLICGVDYCHSLQICHRDLKLENTLLDGSPAPLLKICDFGYSKSSLLHSRPKSTVGTPAYIAPEVLSRREYDGKHADVWSCGVTLYVMLVGGYPFEDPDDPRNFRKTIQRIMAVQYKIPDYVHISQECRHLLSRIFVTNSAKRITLKEIKKHPWYLKNLPKELTEPAQAAYYKRETPSFSLQSVEDIMKIVGEARNPAPSSNAVKGFDDDEEDVEDEVEEEEEEEEEEEEEEEEEEDEYEKHVKEAHSCQEPPKA
B2: SnRK2.1, two-hybrid fusion (enzyme, UniProt P43292 1-353)
chain: MDKYDVVKDLGAGNFGVARLLRHKDTKELVAMKYIERGRKIDENVAREIINHRSLKHPNIIRFKEVILTPTHLAIVMEYASGGELFDRICTAGRFSEAEARYFFQQLICGVDYCHSLQICHRDLKLENTLLDGSPAPLLKICDFGYSKSSILHSRPKSTVGTPAYIAPEVLSRREYDGKHADVWSCGVTLYVMLVGAYPFEDPNDPKNFRKTIQRIMAVQYKIPDYVHISQECKHLLSRIFVTNSAKRITLKEIKNHPWYLKNLPKELLESAQAAYYKRDTSFSLQSVEDIMKIVGEARNPAPSTSAVKSSGSGADEEEEEDVEAEVEEEEDDEDEYEKHVKEAQSCQESDKA
B3: SnRK2.8, two-hybrid fusion (enzyme, UniProt Q9M9E9 1-343)
chain: MERYEIVKDIGSGNFGVAKLVRDKFSKELFAVKFIERGQKIDEHVQREIMNHRSLIHPNIIRFKEVLLTATHLALVMEYAAGGELFGRICSAGRFSEDEARFFFQQLISGVNYCHSLQICHRDLKLENTLLDGSEAPRVKICDFGYSKSGVLHSQPKTTVGTPAYIAPEVLSTKEYDGKIADVWSCGVTLYVMLVGAYPFEDPSDPKDFRKTIGRILKAQYAIPDYVRVSDECRHLLSRIFVANPEKRITIEEIKNHSWFLKNLPVEMYEGSLMMNGPSTQTVEEIVWIIEEARKPITVATGLAGAGGSGGSSNGAIGSSSMDLDDLDTDFDDIDTADLLSPL
B4: RCAR2, two-hybrid fusion (receptor, UniProt Q1ECF1 1-211)
chain: MEMIGGDDTDTEMYGALVTAQSLRLRHLHHCRENQCTSVLVKYIQAPVHLVWSLVRRFDQPQKYKPFISRCTVNGDPEIGCLREVNVKSGLPATTSTERLEQLDDEEHILGINIIGGDHRLKNYSSILTVHPEMIDGRSGTMVMESFVVDVPQGNTKDDTCYFVESLIKCNLKSLACVSERLAAQDITNSIATFCNASNGYREKNHTETNL
B5: SnRK2.4, two-hybrid fusion (enzyme, UniProt P43291 1-363)
chain: MDKYELVKDIGAGNFGVARLMKVKNSKELVAMKYIERGPKIDENVAREIINHRSLRHPNIIRFKEVVLTPTHLAIAMEYAAGGELFERICSAGRFSEDEARYFFQQLISGVSYCHAMQICHRDLKLENTLLDGSPAPRLKICDFGYSKSSLLHSRPKSTVGTPAYIAPEVLSRREYDGKMADVWSCGVTLYVMLVGAYPFEDQEDPKNFRKTIQKIMAVQYKIPDYVHISQDCKNLLSRIFVANSLKRITIAEIKKHSWFLKNLPRELTETAQAAYFKKENPTFSLQTVEEIMKIVADAKTPPPVSRSIGGFGWGGNGDADGKEEDAEDVEEEEEEVEEEEDDEDEYDKTVKEVHASGEVRIS

The text below walks through data of paper PMC10384177.

Results are given in words; binding and its absence hold for the method and conditions named. Some results given as binding are weak or reduced against the parent protein; the word gives no strength. Tags and fused reporters may be left off the sequences shown.

One assay deals with T1, PIA1 (clade F PP2C protein phosphatase), BD-PIA1 two-hybrid fusion (Arabidopsis thaliana). The assay can be described thus: two-hybrid; yeast AH109, BD-PIA1 as bait; in the presence of ABA; growth on selection media; 28 °C.
Consider B1, for which the binding result is on record as “binds”. On the same count and under the same terms, then B2, with “binds”; and B3, with “binds”; and B4, with “binds”. Same read-out and setting: in the case of B5 it was “binds”.

The target is the same in the next assay. Nature of the assay: two-hybrid; yeast AH109, BD-PIA1 as bait; no exogenous ABA; growth on selection media after SD/-Trp/-Leu, SD/-Trp/-Leu/-His with 3-AT, X-alpha-Gal staining; 28 °C.
For the molecule B1, the binding result is given as “binds”. In the case of B2, the binding entry is “binds”. As to B3, the binding result is reported as “binds”. B4: the binding entry is “binds”.

In the case of B5, the binding entry is given as “binds”.

For the next assay the target is unchanged. Described as above. This is another data set of the same source.
Turning to “RCAR11, two-hybrid fusion (from UniProt O49686 1-191) (receptor)”, the binding entry is listed as “no binding”.

For “RCAR12, two-hybrid fusion (from UniProt Q8VZS8 1-221) (receptor)”, the binding result was “no binding”.
